Series [1] addresses T1, (his)6-IscS, E. coli cysteine desulfurase IscS (E. coli, UniProt P0A6B7 1-404).
T1 construct: IscS, cysteine desulfurase of E. coli; not shown: His6, N-terminal, kept
T1 sequence (looked up): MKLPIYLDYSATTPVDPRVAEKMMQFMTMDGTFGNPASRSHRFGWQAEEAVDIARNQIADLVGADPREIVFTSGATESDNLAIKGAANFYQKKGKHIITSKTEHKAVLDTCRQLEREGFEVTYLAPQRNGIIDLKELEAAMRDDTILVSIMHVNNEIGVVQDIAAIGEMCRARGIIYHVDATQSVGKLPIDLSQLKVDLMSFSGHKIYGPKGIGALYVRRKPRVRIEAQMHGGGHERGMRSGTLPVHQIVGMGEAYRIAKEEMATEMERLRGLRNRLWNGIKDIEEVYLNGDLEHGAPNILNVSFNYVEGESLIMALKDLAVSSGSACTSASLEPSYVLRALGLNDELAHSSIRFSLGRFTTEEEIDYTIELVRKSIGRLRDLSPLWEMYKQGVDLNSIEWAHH
Kind of series: co-elution on anion exchange chromatography (QFF); purified His-tagged proteins mixed anaerobically 1:1:1 (144 uM each) for 40 min with 4-fold excess Fe(SO4)2(NH4)2, 10-fold excess L-cysteine, 5 mM DTT in 50 mM Tris-HCl pH 8; loaded on a 1-mL QFF column, eluted with a gradient to 1 M NaCl; fractions analysed by SDS-PAGE; the single proteins elute at lower salt. The following applies: both partners purified.

Series [2] concerns the molecule itself. Kind of series: SEC; gel filtration on Superdex 75 10/300 GL in 0.1 M Tris-HCl pH 8, 50 mM NaCl; oligomeric state from a calibration curve (ribonuclease A, chymotrypsinogen A, ovalbumin).

B1: IscU-(his)6, wild-type E. coli IscU scaffold protein (natural protein, UniProt P0ACD4 1-128, looked up)
chain: MAYSEKVIDHYENPRNVGSFDNNDENVGSGMVGAPACGDVMKLQIKVNDEGIIEDARFKTYGCGSAIASSSLVTEWVKGKSLDEAQAIKNTDIAEELELPPVKIHCSILAEDAIKAAIADYKSKREAK
notes: IscU, Fe-S cluster scaffold protein of E. coli K-12 MG1655; coding region of iscU cloned NdeI/HindIII into pET21a+; the methods say the proteins were mixed with Fe(SO4)2(NH4)2, L-cysteine and DTT; By gel filtration it exists mainly as a dimer; also called IscUWT; His-tagged IscUWT; not shown: His6, C-terminal, kept
Turning to B1, the binding result in series [1] is reported as “binds”.

B2: IscU_(I108M)-(his)6, E. coli IscU with the Ile108Met substitution (natural protein, UniProt P0ACD4 1-128, looked up)
chain: MAYSEKVIDHYENPRNVGSFDNNDENVGSGMVGAPACGDVMKLQIKVNDEGIIEDARFKTYGCGSAIASSSLVTEWVKGKSLDEAQAIKNTDIAEELELPPVKIHCSMLAEDAIKAAIADYKSKREAK
notes: IscU, Fe-S cluster scaffold protein of E. coli K-12 MG1655; coding region amplified from pIscUIM and cloned NdeI/HindIII into pET21a+; the methods say the proteins were mixed with Fe(SO4)2(NH4)2, L-cysteine and DTT; By gel filtration it exists mainly as a dimer; also called IscUIM; His-tagged IscUIM; not shown: His6, C-terminal, kept
The term stoichiometry N denotes a count of units in the complex or per binding partner. For the molecule B2, the binding result in series [1] is reported as “binds”. For the same molecule, in series [2], the “stoichiometry N” value was 2.

Values taken from PMC4440780, “Turning Escherichia coli into a Frataxin-Dependent Organism” (PLoS Genetics, 2015).
